The text below walks through data of the supplement of paper PMC9446081.

SMILES strings stand for the structures. Hit rate of the full screen: of about 39,000 compounds, about 220 (0.56%) showed activity. The list shows a part of the results.
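Further: static incubation at 37 °C against the wild-type strain, values averaged over two biological replicates.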

The assay deals with Escherichia coli K-12 BW25113. As to the kind of experiment: relative growth (OD600 normalised to plate interquartile mean) (fraction); higher = less growth inhibition, active = 0.2 or less. The following applies: 50 µM; LB; incubation time: overnight (16-24 h).
`Cc1ccc(S(=O)(=O)N2C[C@H](O)COC[C@@H]3O[C@H](CC(=O)N[C@H]4CCN(Cc5ccccc5)C4)CC[C@H]32)cc1`: the relative growth was inactive: 1.02.

For the compound `COc1ccc(NC(=O)N(C)C[C@@H]2OCCCC[C@H](C)Oc3ccc(NC(=O)Nc4ccc(F)cc4)cc3C(=O)N([C@@H](C)CO)C[C@@H]2C)cc1`, the relative growth is inactive: 1.05.

On to `C[C@@H]1CCCCO[C@H](CN(C)CC2CCCCC2)[C@H](C)CN([C@H](C)CO)C(=O)c2cc(NS(=O)(=O)c3ccc(F)cc3)ccc2O1`, for which the relative growth is inactive: 1.

Take `Cc1ccc(S(=O)(=O)Nc2ccc3c(c2)C(=O)N([C@@H](C)CO)C[C@@H](C)[C@H](CN(C)Cc2ccc(C(F)(F)F)cc2)OCCCC[C@H](C)O3)cc1`: the relative growth was inactive: 1.02.

In the case of `C[C@H]1CN([C@@H](C)CO)S(=O)(=O)c2ccc(Br)cc2O[C@H]1CN(C)Cc1ccccc1F`, the relative growth was inactive: 0.975.

Regarding `O=c1c(O)c(-c2ccc(O)cc2)oc2ccccc12`, the relative growth is inactive: 0.981.

On to `C[C@H]1CCCCO[C@@H](CN(C)C(=O)Nc2ccc(C(F)(F)F)cc2)[C@@H](C)CN([C@@H](C)CO)C(=O)c2cc(NC(=O)c3ccncc3)ccc2O1`, for which the relative growth is inactive: 0.96.

Take `C[C@H](CO)N1C[C@H](C)[C@H](CN(C)Cc2ccc(Cl)c(Cl)c2)Oc2ccc(NC(=O)Cn3cnnn3)cc2C1=O`: the relative growth was inactive: 0.989.

For `Cc1noc(C)c1NC(=O)N(C)C[C@@H]1OCCCC[C@H](C)Oc2ccc(NC(=O)Nc3ccc4c(c3)OCO4)cc2C(=O)N([C@@H](C)CO)C[C@H]1C`, the relative growth is inactive: 0.997.

For the compound `O=C(CCCCCNC(=O)OCCCCO[C@@H]1C[C@H](c2ccc(C(F)(F)F)cc2)C=C(C(=O)N2CCN(Cc3ccc4c(c3)OCO4)CC2)O1)NO`, the relative growth was inactive: 1.03.

Consider `Cc1nc(N)sc1-c1ccnc(Nc2ccc(N3CCOCC3)cc2)n1`, for which the relative growth was inactive: 1.01.

Regarding `C[C@@H]1CN([C@H](C)CO)S(=O)(=O)c2ccc(Br)cc2O[C@H]1CN(C)C(=O)c1cnccn1`, the relative growth was inactive: 1.01.

For the compound `C[C@H](CO)N1C[C@H](C)[C@@H](CN(C)C(=O)c2cccc(F)c2)Oc2cc(C#CC3CC3)ccc2S1(=O)=O`, the relative growth was inactive: 1.03.

In the case of `CN1CCN(C(=O)C[C@@H]2C=C[C@H](NC(=O)c3ccc4c(c3)OCO4)[C@@H](CO)O2)CC1`, the relative growth was inactive: 0.983.

Take `CCCN(C)C[C@H]1OCCCC[C@H](C)Oc2ccc(NC(=O)Nc3ccc4c(c3)OCO4)cc2C(=O)N([C@@H](C)CO)C[C@@H]1C`: the relative growth is inactive: 0.977.

On to `C[C@@H]1CN([C@H](C)CO)S(=O)(=O)c2ccc(C#C[C@@H](C)O)cc2O[C@@H]1CN(C)C(=O)Nc1ccccc1`, for which the relative growth is inactive: 0.999.

Turning to `CO[C@H]1CN(C)C(=O)c2ccc(NC(=O)C3CC3)cc2OC[C@@H](C)N(C(=O)Cc2ccccn2)C[C@@H]1C`, the relative growth was inactive: 1.02.

As to `CN(C)CCCNC(=O)C[C@@H]1C=C[C@@H](NC(=O)Cc2cccnc2)[C@H](CO)O1`, the relative growth is inactive: 0.984.

`C[C@@H]1CN([C@@H](C)CO)C(=O)c2ccccc2-c2ccccc2CO[C@@H]1CN(C)Cc1ccc(C(F)(F)F)cc1`: the relative growth is inactive: 0.932.

Turning to `CC(C)NC(=O)N(C)C[C@H]1Oc2ccc(NS(=O)(=O)c3cccs3)cc2C(=O)N([C@@H](C)CO)C[C@H]1C`, the relative growth was inactive: 0.968.

Take `C[C@H]1CN([C@@H](C)CO)C(=O)c2c(c3ccccc3n2C)-c2ccccc2CO[C@H]1CN(C)Cc1cccc(C(F)(F)F)c1`: the relative growth is inactive: 1.02.

For `Cc1noc(C)c1S(=O)(=O)Nc1ccc2c(c1)C(=O)N([C@@H](C)CO)C[C@@H](C)[C@H](CN(C)C(=O)Nc1ccc(F)cc1)OCCCC[C@@H](C)O2`, the relative growth is inactive: 0.997.

`CCCCNc1cc(C(=O)O)cc(S(N)(=O)=O)c1Oc1ccccc1`: the relative growth was inactive: 1.03.

For the compound `O=C(NO)c1cn(-c2ccc(C[C@H]3C(=O)O[C@@H](Cc4ccccc4)[C@H]4[C@@H]5C=CCCC=C5CN43)cc2)nn1`, the relative growth is inactive: 0.984.

Regarding `COc1ccc(C[C@H](NC(=O)[C@H](C)NC(=O)CN2CCOCC2)C(=O)N[C@@H](Cc2ccccc2)C(=O)[C@@]2(C)CO2)cc1`, the relative growth is inactive: 1.03.

With `CC(CN1CC(=O)NC(=O)C1)N1CC(=O)NC(=O)C1` (stereo not drawn), the relative growth was inactive: 1.08.

With `C[C@H]1CN([C@@H](C)CO)C(=O)c2cc(C#Cc3ccncc3)cnc2O[C@@H]1CN(C)S(=O)(=O)c1ccccc1F`, the relative growth is inactive: 1.01.

In the case of `CN(C)CC(=O)N[C@@H]1CC[C@H](CCNC(=O)C2CC2)O[C@@H]1CO`, the relative growth was inactive: 1.01.

With `COc1ccc(C#Cc2ccc3c(c2)O[C@H](CN(C)S(=O)(=O)c2ccccc2F)[C@H](C)CN([C@@H](C)CO)S3(=O)=O)cc1`, the relative growth is inactive: 1.06.

Regarding `C[C@@H]1CN([C@@H](C)CO)C(=O)Cc2cc(NC(=O)Cc3ccccc3)ccc2O[C@@H]1CN(C)Cc1ccc(Oc2ccccc2)cc1`, the relative growth is inactive: 0.987.

With `C[C@@H]1CN([C@@H](C)CO)C(=O)Cc2cc(NS(=O)(=O)c3cn(C)cn3)ccc2O[C@H]1CN(C)S(=O)(=O)c1ccc(F)cc1`, the relative growth is inactive: 0.971.

For `C/C=C/c1ccc2c(c1)O[C@@H](CN(C)S(=O)(=O)c1ccc(F)cc1)[C@@H](C)CN([C@@H](C)CO)S2(=O)=O`, the relative growth was inactive: 0.995.

In the case of `Cc1cc2cc(CN)ccc2[nH]1`, the relative growth is inactive: 1.03.

As to `CCS(=O)(=O)NCC[C@H]1CC[C@@H](NS(=O)(=O)c2ccccc2C)[C@@H](CO)O1`, the relative growth is inactive: 1.03.

For the compound `O=C(C[C@@H]1CC[C@H]2[C@@H](COC[C@H](O)CN2C(=O)c2ccccc2)O1)N1CCOCC1`, the relative growth was inactive: 1.

Take `CC(C)(C)c1ccc(C(=O)CCCN2CCC(OC(c3ccccc3)c3ccccc3)CC2)cc1`: the relative growth is inactive: 0.904.

As for `COc1ccc(S(=O)(=O)Nc2ccc3c(c2)CC(=O)N([C@H](C)CO)C[C@@H](C)[C@H](CN(C)S(=O)(=O)c2ccc(OC)cc2)O3)cc1`, the relative growth was inactive: 0.983.

In the case of `NCc1ccc2c(c1)CCO2`, the relative growth is inactive: 1.01.

`CN(C)CC(=O)N[C@@H]1CC[C@@H](CC(=O)NCCN2CCCCC2)O[C@@H]1CO`: the relative growth is inactive: 1.01.

Turning to `COc1ccc(COCC23Oc4ccccc4[C@H]([C@H]2CO[Si](C)(C)C(C)(C)C)n2c(c4ccccc4c(-c4ccccc4)c2=O)N3C)cc1`, the relative growth was inactive: 1.03.

In the case of `CCOC(=O)C1=CC2(CC)CCCN3CCc4c(n1c1ccccc41)C32` (stereo not drawn), the relative growth is inactive: 1.08.

Turning to `C/C=C/c1ccc2c(c1)O[C@H](CN(C)C(=O)c1ccc3c(c1)OCO3)[C@H](C)CN([C@H](C)CO)S2(=O)=O`, the relative growth is inactive: 0.982.

Turning to `C[C@@H]1CN([C@@H](C)CO)C(=O)c2cc(NS(C)(=O)=O)ccc2O[C@H]1CN(C)S(=O)(=O)c1ccccc1`, the relative growth was inactive: 1.

As for `Cc1noc(C)c1NC(=O)N(C)C[C@H]1Oc2ccc(NC(=O)CCN3CCOCC3)cc2CC(=O)N([C@H](C)CO)C[C@@H]1C`, the relative growth was inactive: 1.

For the compound `COCC(=O)N1C[C@@H](C)[C@H](OC)CN(C)C(=O)c2cc(NC(=O)Nc3ccccc3)ccc2OC[C@H]1C`, the relative growth was inactive: 1.01.

Regarding `C[C@H](CO)N1C[C@H](C)[C@@H](CN(C)Cc2ccc(Oc3ccccc3)cc2)Oc2c(NC(=O)Nc3ccc(C(F)(F)F)cc3)cccc2C1=O`, the relative growth is inactive: 0.795.

As for `COc1ccc(NC(=O)N(C)C[C@@H]2Oc3ccc(NC(=O)C4CC4)cc3CC(=O)N([C@@H](C)CO)C[C@H]2C)cc1`, the relative growth is inactive: 1.01.

Regarding `Cl.NC12CC3CC(CC(C3)C1)C2`, the relative growth is inactive: 1.12.

In the case of `O=C(C[C@@H]1CC[C@@H]2[C@H](COC[C@H](O)CN2C(=O)Nc2ccc(C(F)(F)F)cc2)O1)NCCc1ccncc1`, the relative growth is inactive: 0.988.

Take `CN(C)c1cc(NC(=O)CNC(C)(C)C)c(O)c2c1C[C@H]1C[C@H]3[C@H](N(C)C)C(=O)[C@@H](C(N)=O)C(=O)[C@@]3(O)C(=O)[C@H]1C2=O`: the relative growth was inactive: 1.01.

For `COc1cccc(NC(=O)N[C@@H]2CC[C@@H](CC(=O)N3CCOCC3)O[C@@H]2CO)c1`, the relative growth is inactive: 0.989.

For the compound `C[C@@H]1CCCCO[C@H](CN(C)Cc2ccc(C(F)(F)F)cc2)[C@@H](C)CN([C@H](C)CO)C(=O)c2cc(NS(=O)(=O)c3ccc(F)cc3)ccc2O1`, the relative growth is inactive: 1.03.

As to `C[C@@H]1CN([C@@H](C)CO)C(=O)c2cc(NC(=O)CCC(F)(F)F)ccc2O[C@@H]1CN(C)Cc1ccc(C(=O)Nc2ccccc2N)cc1`, the relative growth was inactive: 0.987.

`COc1ccc(S(=O)(=O)N(C)C[C@@H]2Oc3ccc(NS(=O)(=O)c4cn(C)cn4)cc3CC(=O)N([C@@H](C)CO)C[C@H]2C)cc1`: the relative growth is inactive: 1.02.

In the case of `Cc1nnc(N)s1`, the relative growth is inactive: 1.04.

For the compound `O=C(C1CC1)N1CCN(c2ncccn2)CC1`, the relative growth was inactive: 0.991.

For `C[C@@H]1CCCCO[C@@H](CN(C)S(=O)(=O)c2cn(C)cn2)[C@@H](C)CN([C@H](C)CO)C(=O)c2cc(N(C)C)ccc2O1`, the relative growth was inactive: 1.02.

Turning to `CC(=O)N(C)C[C@H]1Oc2ncc(C#C[C@@H](C)O)cc2C(=O)N([C@@H](C)CO)C[C@@H]1C`, the relative growth was inactive: 0.991.

As to `C[C@H]1CN([C@@H](C)CO)C(=O)c2cc(NC(=O)CCCCCC(=O)Nc3ccccc3N)ccc2O[C@@H]1CN(C)S(=O)(=O)c1cn(C)cn1`, the relative growth is inactive: 1.01.

As for `C[C@H](c1cccnc1)N(C(=O)Nc1ccccc1)C1CCCCC1`, the relative growth is inactive: 0.939.

With `COc1ccccc1CNC(=O)C[C@H]1CC[C@@H]2[C@H](COC[C@H](O)CN2C(=O)Nc2ccc(F)cc2)O1`, the relative growth was inactive: 0.952.

As to `C[C@H]1CN([C@@H](C)CO)C(=O)c2cc(C#Cc3cccnc3)cnc2O[C@@H]1CN(C)S(C)(=O)=O`, the relative growth was inactive: 0.984.

Regarding `C[C@H]1CCCCO[C@H](CN(C)C(=O)Nc2ccc(F)cc2)[C@@H](C)CN([C@@H](C)CO)C(=O)c2cc(NC(=O)c3ccccc3)ccc2O1`, the relative growth is inactive: 1.02.
